The list shows a part of the results. Values were computed here from the reads of four pooled replicates and scatter widely.
Each sequence was assayed against T1, Pho4 (S. cerevisiae) (UniProt P07270) (assay: relative binding free energy (BET-seq); higher = weaker binding). Settings: reference: library average.
T1 sequence: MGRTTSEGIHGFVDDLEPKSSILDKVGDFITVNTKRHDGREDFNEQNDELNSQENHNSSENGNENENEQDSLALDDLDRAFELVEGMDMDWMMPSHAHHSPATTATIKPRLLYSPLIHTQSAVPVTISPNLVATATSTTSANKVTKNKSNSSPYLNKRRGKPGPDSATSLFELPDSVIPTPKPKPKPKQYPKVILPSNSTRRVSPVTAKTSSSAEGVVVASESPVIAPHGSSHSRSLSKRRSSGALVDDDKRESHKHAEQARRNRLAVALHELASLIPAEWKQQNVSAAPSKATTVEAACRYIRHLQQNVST

Sequence	relative binding free energy [kcal/mol]
TCGGTCACGTGAGTAA	0.24
TTGTACACGTGGGGTT	-0.04
GTTTTCACGTGATAAG	0.32
ATGGCCACGTGGTTTA	0.03
AGGGTCACGTGGGTCC	-0.13
TTAGCCACGTGATGTA	0.04
GGAGTCACGTGGAGTT	0.04
GGTATCACGTGTTGGT	0.29
ATGAACACGTGGTAAT	0.1
TGAAACACGTGTATGG	-0.02
ACAGTCACGTGATGTG	0.31
TTAAACACGTGGAGGA	0.05
GCGTTCACGTGGGTGT	0.19
GGGCGCACGTGGACGT	0.02
GGAAGCACGTGTAGGA	-0.22
ATTCGCACGTGGTTTA	-0.21
CTGTGCACGTGTGATG	0.13
TTTAACACGTGTGAGT	0.05
GGTTGCACGTGATTGA	0.34
TCCTGCACGTGGGTGT	-0.21
ATTTTCACGTGTGCTA	0.22
CTGGTCACGTGTATTA	0.03
GGGTCCACGTGAGTGC	0.18
TCATGCACGTGATTTG	0.14

Sequence	relative binding free energy [kcal/mol]
TGGGGCACGTGATGGG	-0.01
AGTTCCACGTGGCTGT	0.05
GTATGCACGTGTCAGA	0.2
GATCTCACGTGTGGCG	0.38
GCATGCACGTGGCGTT	-0.05
TCGGTCACGTGAGTTG	0.34
GAAAGCACGTGGTTAT	-0.15
GGGGACACGTGCCGTG	0.07
GGGTGCACGTGCGTTA	-0.16
GGACGCACGTGTTGAT	0.08
GCATTCACGTGTTGTA	0.17
ATGTACACGTGGTGAT	0.08
CCTGTCACGTGAAGGG	0.32
TGTTTCACGTGGAACG	0.33
GGTTCCACGTGTGTAG	0.15
ATTGTCACGTGTATGA	0
GGTTTCACGTGAATTA	0.34
GGCAGCACGTGAAGGG	0.29
AATTGCACGTGGAGGA	0.05
TTGAGCACGTGAGTTG	0.13
GGAGGCACGTGTGTGC	-0.04
AGCGGCACGTGGAGTG	-0.11
TGTTACACGTGCTCGT	-0.02
TCTGGCACGTGGAAAG	0.09

Sequence	relative binding free energy [kcal/mol]
TGTCTCACGTGGGGTG	0.03
AGTATCACGTGCGCGT	-0.01
AGTATCACGTGTAGCA	0.15
TTAGGCACGTGCTTTA	-0.15
TTGAGCACGTGGGTGA	-0.25
ATTGGCACGTGGGAGC	-0.03
TGTGTCACGTGAGTGC	0.2
TTAGACACGTGTTCGA	0.07
CGAGGCACGTGGGTAT	-0.16
AGAGACACGTGCTGGT	0.01
TTGTCCACGTGATCGG	0.08
TCAGGCACGTGATATG	0.11
GGTGCCACGTGTTCTG	0.02
TTAATCACGTGAATTA	0.31
GCCGGCACGTGCGTGG	-0.18
TGTGTCACGTGAGGGG	0.3
TAGAGCACGTGAATGA	0.24
GGTTACACGTGGCAGT	0.01
ACGTTCACGTGGGTGG	0.2
TCAGTCACGTGTATTG	-0.04
TTGTTCACGTGTGCCT	0.2
TATGACACGTGTTTTA	-0.23
GTGGACACGTGGTAGT	-0.04
TCAAGCACGTGGGATG	-0.18

Sequence	relative binding free energy [kcal/mol]
CTTTTCACGTGGTTGG	0.27
AGGTTCACGTGTTTGT	0.19
GTGAACACGTGTGGAT	0.08
GGGGGCACGTGCAAAG	-0.11
TATAGCACGTGCTTTG	-0.18
GTTTTCACGTGGGATG	0.33
AAATGCACGTGTGGCT	-0.08
AGAGTCACGTGTTATG	0.13
GCTTTCACGTGTGTAA	0.25
TGGAGCACGTGGATCG	-0.05
TAGTTCACGTGTGGGC	0.28
TTGGTCACGTGTAGTA	0.13
ATTTACACGTGTACGG	0.2
AGGTCCACGTGCGCGG	0.01
CTGGTCACGTGTTATT	0.22
GTATACACGTGGGCAG	-0.04
TGGGGCACGTGAGCAG	0.02
ATCGGCACGTGGGGCA	-0.21
TCGGACACGTGAGGTT	0.45
TTGTTCACGTGAGACG	0.52
AGGATCACGTGCGTAT	0.18

From the BET-seq Pho4 binding data (Le et al. 2018)
